About 5,700 (2.6%) of roughly 220,000 compounds were called active. The inconclusive results got no clear call from the source; some entries with a clear call stand among them for comparison. Calls follow the shape of the dose curve; as a rule, active = well fitted inhibition curve with a large enough effect; inconclusive = small, poorly fitted or top-dose-only effect; inactive = no such curve, though single readings can be large or run the other way. Potencies of inconclusive entries are doubtful fits and often do not repeat.
biological target: Lysine-specific demethylase 5B (Homo sapiens) (UniProt Q9UGL1); test: Primary screen for KDM5B Histone Demethylases FDH-coupled qHTS; conditions: FDH-coupled NADH fluorescence (FDH is formaldehyde dehydrogenase); series mostly up to 57.7 µM; also: nearly all actives have a fitted effect of over 70% in size
Procedure, shortened: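 Measured: NADH fluorescence change, 30 min, RT. System: KDM5BΔAP 200 nM final, H3K4me3 peptide, α-KG, Fe(II), ascorbate, NAD⁺ plus FDH, pH 7.5 HEPES. Compounds: titrated, 10 min pre-incubation with enzyme.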
Potency is read from the fitted curve at half-maximal effect; tags tell the direction and shape of the fitted curve.

Chain of UniProt Q9UGL1 (Q9UGL1 whole entry, looked up): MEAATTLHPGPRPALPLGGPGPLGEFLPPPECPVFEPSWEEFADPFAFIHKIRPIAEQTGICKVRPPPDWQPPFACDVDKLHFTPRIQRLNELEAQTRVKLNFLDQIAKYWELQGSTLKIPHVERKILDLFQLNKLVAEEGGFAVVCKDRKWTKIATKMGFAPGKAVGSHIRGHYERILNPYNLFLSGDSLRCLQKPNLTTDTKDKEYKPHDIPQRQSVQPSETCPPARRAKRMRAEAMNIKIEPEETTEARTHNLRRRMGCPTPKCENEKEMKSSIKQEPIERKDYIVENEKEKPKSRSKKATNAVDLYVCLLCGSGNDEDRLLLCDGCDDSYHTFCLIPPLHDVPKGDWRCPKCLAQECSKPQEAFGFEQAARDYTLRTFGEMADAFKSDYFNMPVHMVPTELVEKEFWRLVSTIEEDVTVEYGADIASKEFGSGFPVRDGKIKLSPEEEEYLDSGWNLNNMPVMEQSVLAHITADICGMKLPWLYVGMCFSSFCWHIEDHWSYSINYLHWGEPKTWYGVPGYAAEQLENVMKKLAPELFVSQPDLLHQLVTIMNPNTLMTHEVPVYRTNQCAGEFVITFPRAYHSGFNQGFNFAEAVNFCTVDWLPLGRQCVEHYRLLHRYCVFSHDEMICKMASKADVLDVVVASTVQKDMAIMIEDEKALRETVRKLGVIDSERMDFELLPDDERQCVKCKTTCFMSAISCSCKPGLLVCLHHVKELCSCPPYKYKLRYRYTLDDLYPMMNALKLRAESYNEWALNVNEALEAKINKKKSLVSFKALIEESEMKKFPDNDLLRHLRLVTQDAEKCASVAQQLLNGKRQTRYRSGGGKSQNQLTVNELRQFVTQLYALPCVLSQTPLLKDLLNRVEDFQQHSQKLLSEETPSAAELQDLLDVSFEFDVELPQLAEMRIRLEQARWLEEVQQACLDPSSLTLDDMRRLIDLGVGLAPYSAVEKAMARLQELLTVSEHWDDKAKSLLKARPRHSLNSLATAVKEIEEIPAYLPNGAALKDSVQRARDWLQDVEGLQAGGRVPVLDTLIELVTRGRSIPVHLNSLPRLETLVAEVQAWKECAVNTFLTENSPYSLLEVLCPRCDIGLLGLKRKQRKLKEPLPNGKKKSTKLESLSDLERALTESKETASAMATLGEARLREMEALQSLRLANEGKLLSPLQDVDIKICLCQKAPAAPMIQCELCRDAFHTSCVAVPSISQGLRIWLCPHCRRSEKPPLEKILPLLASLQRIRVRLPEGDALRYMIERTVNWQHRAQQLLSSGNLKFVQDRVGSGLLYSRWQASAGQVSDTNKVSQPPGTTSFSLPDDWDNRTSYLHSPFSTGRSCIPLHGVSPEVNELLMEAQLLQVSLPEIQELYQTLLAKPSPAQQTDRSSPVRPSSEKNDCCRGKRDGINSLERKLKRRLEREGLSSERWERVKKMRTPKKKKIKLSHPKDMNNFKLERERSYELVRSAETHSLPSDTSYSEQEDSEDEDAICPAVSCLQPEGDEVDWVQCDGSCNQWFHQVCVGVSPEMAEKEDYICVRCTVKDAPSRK

Q: With `Cc1cccc(NC(=O)C(C)(C)c2ccc(Cl)cc2)n1` as the molecule, how does the Potency read?
A: The Potency was “inactive”.

Q: `O=C(Nc1ccc(Br)cc1F)c1ccc(-c2ccccc2)cc1` was tested. Which Potency did it give?
A: The Potency was “inactive”.

Q: How did the Potency turn out when `Cc1ccc(N2C(=O)c3ccccc3NC2c2cnc3ccccc3n2)cc1` (stereo unspecified) was run?
A: The Potency was “inactive”.

Q: `CC(=O)Nc1ccc(NC(=O)c2ccc(N(C)S(=O)(=O)c3ccc(C)cc3)cc2)cc1` was tested. Which Potency did it give?
A: The Potency was inconclusive: 31.6 µM [inhibitor, single point].

Q: Which Potency does the source give for `COc1cccc(CN2CC3(C2)C(=O)N(Cc2cccc(Cl)c2)C(=O)[C@@H]2C[C@@H](O)CN23)c1` here?
A: Its Potency is “inactive”.

Q: With `Fc1ccc(Br)cc1-c1nnc2sc(Cn3cccn3)nn12` as the molecule, how does the Potency read?
A: Its Potency is inconclusive: 39.8 µM [inhibitor, single point].

Q: Which Potency does the source give for `CC(C)NC(=O)c1ccccc1OCC1CCCN(Cc2nccs2)C1` (stereo unspecified) here?
A: Its Potency is inconclusive: 25.1 µM [inhibitor, partial curve, poor fit].

Q: How did the Potency turn out when `O=C(NCC(c1ccccc1)c1c[nH]c2ccccc12)c1ccc[n+]([O-])c1` (stereo unspecified) was run?
A: Its Potency is “inactive”.

Q: `CCc1ccc(NC(=O)Cn2nc3n(c2=O)CCCC3)cc1` was tested. Which Potency did it give?
A: Its Potency is “inactive”.

Q: `CNC(=O)c1ccc(N2CC3CC(C2)[C@H]2CCCC(=O)N2C3)nc1` (stereo partly specified) was tested. Which Potency did it give?
A: The Potency was “inactive”.

Q: With `CC(C(=O)c1c[nH]c2ccccc12)N1CCC(C(=O)N2CCCCCC2)CC1` (stereo unspecified) as the molecule, how does the Potency read?
A: The Potency was “inactive”.

Q: `NC(=O)[C@@H]1CN(C(=O)COc2ccccc2)C[C@H]1COc1ccccc1` was tested. Which Potency did it give?
A: Its Potency is “inactive”.

Q: Which Potency does the source give for `COc1ccc(C(=O)Nc2ccc3oc(-c4ccccc4)cc(=O)c3c2)cc1OC` here?
A: The Potency was “inactive”.

Q: With `N#Cc1ccc(/C=C/c2nc3c(ccc4ccccc43)s2)cc1` as the molecule, how does the Potency read?
A: The Potency was inconclusive: 1.58 µM [inhibitor, partial curve, poor fit].

Q: Which Potency does the source give for `CNC(=O)[C@@H](c1ccccc1F)N1CCC[C@H]1C(=O)N1CCOCC1` here?
A: Its Potency is “inactive”.

Q: For `CN(Cc1ccccc1)C(=O)[C@@H]1Cc2nc[nH]c2CN1C(=O)CC(C)(C)CC(=O)O`, which Potency is on record?
A: Its Potency is inconclusive: 28.2 µM [inhibitor, partial curve, poor fit].

Q: How did the Potency turn out when `Cn1cc(CCCC(=O)NCc2ccccc2Cl)c2ccccc21` was run?
A: Its Potency is inconclusive: 25.1 µM [inhibitor, partial curve, poor fit].

Q: `CCOC(=O)c1c(NC(=O)CSc2nc(-c3ccccc3)cc(C(F)(F)F)n2)sc(C)c1C` was tested. Which Potency did it give?
A: The Potency was inconclusive: 15.8 µM [inhibitor, partial curve, poor fit].

Q: `CCCN1CCC2(CCN([S+](=O)([O-])c3cccc(OC)c3)CC2)Oc2ccccc21` was tested. Which Potency did it give?
A: Its Potency is inconclusive: 28.2 µM [inhibitor, single point].

Q: With `CN(C(=O)c1cc2c(=O)n3ccccc3nc2n1C)c1ccccc1` as the molecule, how does the Potency read?
A: Its Potency is inconclusive: 22.4 µM [inhibitor, partial curve, poor fit].

Q: With `CNS(=O)(=O)c1ccc(NC(=O)Nc2ccc3c(c2)OCO3)cc1` as the molecule, how does the Potency read?
A: Its Potency is “inactive”.

Q: How did the Potency turn out when `CCC(CC)C(=O)N1CCC(OC2CCN(C)CC2)CC1` was run?
A: The Potency was “inactive”.

Q: Which Potency does the source give for `O=C(Nc1ccccc1)c1nc2c(o1)CCN(Cc1cccnc1)CC2` here?
A: Its Potency is “inactive”.

Q: How did the Potency turn out when `Cc1ccc(-c2cc(N3CCCN(C(=O)COc4ccc(F)cc4)CC3)n[nH]2)cc1C` was run?
A: The Potency was inconclusive: 35.5 µM [inhibitor, single point].

Q: For `NC(=O)COc1ccccc1OC[C@@H]1CCCN2CCCC[C@H]12`, which Potency is on record?
A: The Potency was “inactive”.

Q: `COCCNC(=O)c1cc(-c2ccccc2F)cc2c1OCCN2Cc1cccnc1` was tested. Which Potency did it give?
A: The Potency was active: 31.6 µM.

Q: `CCc1cc(=O)oc2cc(C)cc(OC(C)C(=O)NCCCN3CCOCC3)c12` (stereo unspecified) was tested. Which Potency did it give?
A: Its Potency is inconclusive: 1.78 µM [inhibitor, partial curve, poor fit].

Q: Which Potency does the source give for `CC(Nc1ccc(NC(=O)c2cccc[n+]2[O-])cc1)c1ccccc1` (stereo unspecified) here?
A: The Potency was “inactive”.

Q: For `NCCC1CCN(C(=O)Nc2ccccc2)CC1`, which Potency is on record?
A: The Potency was “inactive”.

Q: Which Potency does the source give for `COc1ccccc1Nc1nc(NCc2ccco2)c2ccccc2n1` here?
A: The Potency was inconclusive: 39.8 µM [inhibitor, single point].

Q: Which Potency does the source give for `O=C(NCCOc1ccccc1)c1nc2c(o1)CCN(Cc1cc(F)ccc1F)CC2` here?
A: The Potency was inconclusive: 28.2 µM [inhibitor, single point].

Q: Which Potency does the source give for `CCOc1ccc(-c2cn3c(n2)sc2cc(C(=O)NCCc4ccc(OC)c(OC)c4)ccc23)cc1` here?
A: Its Potency is inconclusive: 1.26 µM [inhibitor, full curve, poor fit].

Q: How did the Potency turn out when `COc1ccc(-c2cc(N3CCC(NC(=O)c4cccc(N(C)C)c4)C3)n[nH]2)cc1` (stereo unspecified) was run?
A: The Potency was inconclusive: 11.2 µM [inhibitor, partial curve, poor fit].

Q: `O=C(Nc1ccc(F)cc1Cl)c1cc2n(n1)CC(c1ccc3c(c1)OCO3)OC2` (stereo unspecified) was tested. Which Potency did it give?
A: The Potency was inconclusive: 20 µM [inhibitor, single point].

Q: With `C/C(=N\NC(N)=S)c1ccc(C2CCCCC2)cc1` as the molecule, how does the Potency read?
A: Its Potency is inconclusive: 20 µM [inhibitor, partial curve, poor fit].

Q: How did the Potency turn out when `Cc1cc(C)c2c(n1)nn1c(C)c(CCC(=O)NCc3ccc(Cl)cc3)c(C)nc21` was run?
A: The Potency was inconclusive: 2 µM [inhibitor, partial curve, poor fit].

Q: `O=C(Nc1cc(F)ccc1F)c1cc2nc(-c3ccco3)cc(C(F)(F)Cl)n2n1` was tested. Which Potency did it give?
A: Its Potency is inconclusive: 17.8 µM [inhibitor, partial curve, poor fit].

Q: With `Cc1oc(C(O)c2ccccc2)nc1C(=O)Nc1ccc2c(c1)CNC2=O` (stereo unspecified) as the molecule, how does the Potency read?
A: The Potency was inconclusive: 35.5 µM [inhibitor, single point].

Q: Which Potency does the source give for `COc1cccc(-c2cc(C(=O)NCCOc3ccccc3)[nH]n2)c1` here?
A: The Potency was “inactive”.

Q: Which Potency does the source give for `CC(C)CCNC(=O)N1CCC(OC2CCN(Cc3ccccc3)CC2)CC1` here?
A: The Potency was “inactive”.

Q: With `Cc1cc(C)c2cc(C(=O)N3CCc4ccccc4C3)[nH]c2c1` as the molecule, how does the Potency read?
A: Its Potency is inconclusive: 22.4 µM [inhibitor, partial curve, poor fit].

Q: For `CC(CNC(=O)CCc1ccccc1)NC(=O)CCc1ccccc1` (stereo unspecified), which Potency is on record?
A: The Potency was “inactive”.

Q: How did the Potency turn out when `C=CCNC(=O)C(NC(=O)c1cccs1)C1CCN(C(=O)c2ccc(F)cc2)CC1` (stereo unspecified) was run?
A: The Potency was active: 28.2 µM.

Q: How did the Potency turn out when `Cc1cc(C)n(CCCN(C)Cc2cc3n(n2)CCNC3)n1` was run?
A: Its Potency is inconclusive: 25.1 µM [inhibitor, partial curve, poor fit].

Q: `O=C(COc1ccc(Cl)cc1)NCCc1csc(-c2ccc(F)cc2)n1` was tested. Which Potency did it give?
A: The Potency was inconclusive: 35.5 µM [inhibitor, single point].

Q: How did the Potency turn out when `COC(=O)c1c(N)n(-c2ccc(OC)c(Cl)c2)c2nc3ccccc3nc12` was run?
A: The Potency was inconclusive: 5.62 µM [inhibitor, partial curve, poor fit].

Reference: PubChem BioAssay AID1347165 (National Center for Advancing Translational Sciences (NCATS), 2019)
